Experimental data as given in the supplement of paper PMC10126150.
Values marked as one replicate rest on one cluster of the flow cell; about a third of the high ones do not repeat.

test system: ATP; assay: switch fluorescence ratio, 500 uM ATP over buffer (Cy3 cluster intensity, sum of 5 cycles each) (fold (ratio)); higher = stronger signal-on switching upon ATP binding; sequences stand for … in TCGTCGGCAGCGTCAGATGTGTATAAGAGACAGTTTTTTTTTTTTTTTTTTTTTTTTT…TC; conditions: aptamer strand: ATP DNA aptamer (quencher-CACCTGGGGGAGTATTGCGGAGGAAGG + anchor), 100 nM annealed; ATP concentration: 500 uM; one replicate
Procedure, shortened: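 Values give the fluorescence ratio for each switch-domain sequence, averaged from per-cluster ratios of summed target-cycle to summed buffer-cycle Cy3 intensity. The Cy3-labelled switching-strand clusters sat on a modified Illumina MiSeq flow-cell, were annealed to 100 nM quencher-labelled ATP aptamer, and were imaged in selection buffer, then after 15 min with 500 uM ATP at 22 °C. Five cycles ran with NaOH stripping and re-annealing between them, and clusters outside 100-1000 RFU were excluded.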
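Note: ATP exposure 15 min at 22 °C before imaging.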

Row | Sequence | switch fluorescence ratio
1 | TGCAGTATTA | 1.08
2 | CAGGGCTGAA | 1
3 | ATCTTGAACG | 0.99
4 | GGATGAGTTG | 0.934
5 | CAAATCATAT | 0.935
6 | ACCTTAGTTG | 1.06
7 | CCTCCGGTTG | 5.37
8 | ACGCAGTGGA | 1.07
9 | TTGCAGCAAG | 1.52
10 | TACATGGGAC | 0.996
11 | AGAAGGGGCA | 0.997
12 | AATATTATAG | 1.02
13 | TTACGACACG | 1.34
14 | GGCGAGTGAA | 1.02
15 | CCCGGAAAAG | 0.975
16 | TCAAATAGAA | 1.01
17 | ATCCAAGATC | 1.3
18 | TAACTGAAAG | 1.03
19 | GCCCGTTAGG | 0.987
20 | GTAAAAAAGG | 1.01
21 | CATTATCACA | 1.03
22 | CTTGTAAAGA | 0.995
23 | CGGGGATCTG | 1.01

Row | Sequence | switch fluorescence ratio
24 | TAAGCCTCCA | 0.999
25 | TCCCCAGCAG | 4.73
26 | TGTATTGTTT | 0.99
27 | TTCGCCCTGT | 1.04
28 | GGGGAAGCTG | 1.11
29 | CATAGATGGT | 0.987
30 | CGATGGAGAT | 1.02
31 | CCGGGAATGT | 1.06
32 | ACATTGGACT | 1.1
33 | TTTAGATGT | 1.04
34 | GCACCCCTTT | 1.04
35 | GGAGATGAGG | 1.01
36 | GCAGACAAAT | 1.01
37 | AAGATCAGGG | 0.963
38 | AATAGCCCTA | 1.02
39 | ATAAGATCCG | 1
40 | TACTAGAAAG | 1.06
41 | CTGTTGCCGC | 1.13
42 | ATAACCTATG | 0.991
43 | GCTAAAACGG | 1
44 | AACCTGCAAC | 1.82
45 | GGCCCAGCTG | 1.04
46 | CCGTACAATT | 2.41

Row | Sequence | switch fluorescence ratio
47 | TACGTCGCAT | 1.46
48 | CTAAGGGCA | 0.974
49 | GCAGTTGTCA | 0.992
50 | TACTGAAGCC | 1.08
51 | CAATAAGTA | 1.01
52 | CTGAGGTTAA | 1.04
53 | TGACCTCTC | 1.27
54 | GGTTGAATGC | 1.03
55 | TAGCCCCGGA | 1.02
56 | ACCTGGCCTA | 1.01
57 | CTGTTGTCAC | 0.996
58 | CATTTACAGG | 1.09
59 | CTGTGACCTC | 1.06
60 | TTAATAATGT | 1.02
61 | GCGTCGATAC | 5.78
62 | GCGCAACGAT | 1.04
63 | GTCCGGCAAG | 1.07
64 | TAAAAGTTGA | 0.97
65 | GGGCGAAAGG | 1.01
66 | GCCAGCAAGA | 1.41
67 | ACGCCGAAAA | 1.17
68 | TCGTTTGAGG | 0.975
69 | CCTCAACCAG | 1.88

Row | Sequence | switch fluorescence ratio
70 | CTGACGGATG | 1.02
71 | CCATTCGGTC | 0.952
72 | TGATAAACAC | 1.12
73 | TTCATAAAAG | 1
74 | AAAGAGGCAG | 0.996
75 | CCGATGTTCT | 1.21
76 | AAAATAGTCC | 0.995
77 | TAATTTAGAG | 0.985
78 | GTTCTGAACA | 0.902
79 | GCAAGGGGCA | 0.988
80 | ACTGAGGTGA | 1.03
81 | AGAGAGTTTC | 1.08
82 | AGGGTATCAC | 1.02
83 | TAATGGGCTC | 0.993
84 | CAGACTGACG | 1.01
85 | AGACACAGAG | 1.01
86 | AAGGGGTT | 1.02
87 | TCGGAACTTC | 1.04
88 | GATCTTTTGC | 0.959
89 | ACAAAATGGA | 1.05
90 | CACTCCTTG | 1.03
91 | TGCTGATTGG | 0.943
92 | AAGGCCACAT | 1.03

Row | Sequence | switch fluorescence ratio
93 | CGGTACGGAG | 0.98
94 | AATGGTCAGG | 1.02
95 | GCCTGATATG | 1.01
96 | CTGCGGCCAA | 1.15
97 | TTTTGGACTG | 0.987
98 | AATTACGTCT | 0.984
99 | GTTTAGCCTA | 1.03
100 | AATGGGGTTG | 1.04
101 | TGGGATACTA | 1.03
102 | TGCCTTTAGA | 0.971
103 | GATGCGTCAA | 1.03
104 | GAAATCGGCG | 1.01
105 | CCATGGGAGG | 0.97
106 | ACTAAGCGAA | 1.14
107 | ATACTCGTTG | 1.01
108 | CTGTCGCTTG | 0.994
109 | GGGAGCAGT | 1.04
110 | CCATTGCATC | 2.08
111 | GTCGCCGGCT | 0.965
112 | TCGTCTGGA | 0.986
113 | CGTTAGGCAA | 1.72
114 | TTGGATCCC | 0.979
115 | CAGCTGGGTC | 0.974

Row | Sequence | switch fluorescence ratio
116 | ATTCATGCTG | 0.92
117 | GATCCACGTT | 1.03
118 | CGAGCTCATA | 1.03
119 | CAAGAAGCTA | 1.03
120 | AGACATCTGG | 1.01
121 | GTTAGTCCAC | 0.956
122 | CTCCTATATG | 1.09
123 | TGTTAAATTG | 1.03
124 | AATAGTGATA | 1.01
125 | GAGTCCTTTG | 0.951
126 | AAGTCACGGC | 1.07
127 | TCGCGATCG | 1.11
128 | AAATACTAGA | 1.03
129 | GGCCTCGAAG | 1.02
130 | TTAACTGG | 0.941
131 | AAATCCGTAT | 1.03
132 | TAAGTGCGAC | 1.04
133 | GCCCAGTACG | 1.17
134 | GAAAGAGGTC | 1.04
135 | AGTGTACATT | 0.974
136 | GCGGGCGTAC | 1.11
137 | GGGAAAGACG | 0.995
138 | AATGCCTCGC | 0.99

Row | Sequence | switch fluorescence ratio
139 | TTGTAATTAT | 0.96
140 | GCCAGGAGTC | 1.03
141 | TGGTTGCCCC | 1.11
142 | TGGAGTGTGT | 1.01
143 | CGATCGACAT | 1.03
144 | GTTTCAGAGT | 1.02
145 | TGGCCAGAAA | 1.05
146 | ATTCTGATTA | 0.956
147 | CGGTAGCC | 0.983
148 | TTATACCGCC | 1.01
149 | CTCTGAGCTG | 1.08
150 | CAGATGGTTA | 0.999
151 | GCCAATGCAG | 0.968
152 | AAGTGGAGCC | 0.932
153 | GGCCCCCCGG | 1.12
154 | CGATCGCAAA | 4.77
155 | GGTAGCTAGC | 1.18
156 | GATAAGACGC | 1.07
157 | AGCGTGGGGA | 0.973
